Source: PubChem BioAssay (NCATS)
Several values for one entry are separate records, joined by “and”; a condition that tells them apart may be missing. Identical values can stand only once. This list was built around the results that the source calls inconclusive (neither active nor inactive); the mix of calls is not that of the screen. Where a call stands in place of a potency, no number is given. Potencies beside an inconclusive call are fits to weak or partial responses and may not hold up. Activity calls are given as the source filed them. Calls follow the shape of the dose curve; as a rule, active = well fitted inhibition curve with a large enough effect; inconclusive = small, poorly fitted or top-dose-only effect; inactive = flat fitted curve, though single readings scatter.

molecular target: Aldehyde dehydrogenase, mitochondrial (Homo sapiens) (UniProt P05091); assay: qHTS for Inhibitors of the Aldehyde Dehydrogenase Family (ALDH2) Primary screen (AID 2061308); settings: ALDH2 enzyme inhibition qHTS, 1536-well; series mostly up to 56 µM; also: nearly all actives have a fitted effect of over 55% in size
Potency is read from the fitted curve at half-maximal effect; tags tell the direction and shape of the fitted curve.

Structure (SMILES)	Potency
CCCc1cc(F)c(S(=O)(=O)N2CCN(S(=O)(=O)c3ccc4c(c3)OCCO4)CC2)cc1F	inactive
CC1CCC2(NC1)OC1C(O)C3C4CCC5CC(O[C@@H]6O[C@H](CO)[C@@H](O)[C@H](O)[C@H]6O[C@@H]6O[C@@H](C)[C@H](O)[C@@H](O)[C@H]6O)CCC5(C)C4CCC3(C)C1C2C (some centres undefined)	inactive
c1nc(NCCc2cnc[nH]2)c2ccc(-c3ccc4c(c3)OCO4)cc2n1	inconclusive: 7.08 µM [inhibitor, partial curve, poor fit]
COc1ccc(C2c3c(ncn(CCc4ccccc4)c3=N)Oc3ccc4ccccc4c32)cc1OC (centres undefined)	inactive
O=C(O)c1ccc(CSc2nnc(-c3cccc([S+](=O)([O-])N4CCCC4)c3)n2-c2ccccc2)cc1	inconclusive: 39.8 µM [inhibitor, partial curve, poor fit]
Cc1nc(N2CCOCC2)c2nc(-c3ccccc3)n(CCCN(C)C)c2n1	inactive
Cc1ccsc1CN(C)c1ncnc2ccc(-c3ccc(CO)o3)cc12	inconclusive: 28.2 µM [inhibitor, partial curve, poor fit]
CCC1CCC2(C1)N=C(Nc1nc3ccccc3o1)NC1=C2C(=O)CCC1 (centres undefined)	inconclusive: 15.8 µM [inhibitor, partial curve, poor fit] and inconclusive: 15.8 µM [inhibitor, partial curve] and inconclusive: 17.8 µM [inhibitor, partial curve, poor fit]
Cc1ccc2nc3sc(C(=O)Nc4ccc(F)cc4)cc3cc2c1	inconclusive: 7.94 µM [inhibitor, partial curve]
COc1ccccc1O[C@@H]1O[C@H](CO)[C@H](O)[C@H](O)[C@H]1O	inconclusive: 0.355 µM [inhibitor, full curve, poor fit]
CC(=O)Nc1sc2c(c1-c1nc3ccccc3s1)CCN(C(C)=O)C2	inconclusive: 0.562 µM [inhibitor, full curve, poor fit]
Cc1cccc(N2CCN(C(=S)Nc3cc(C)ccn3)CC2)c1	inconclusive: 7.08 µM [inhibitor, single point]
CC(C)(O)C(=O)N1CCN(c2ccc(C(F)(F)F)c(C3=C(c4c[nH]c5ccccc45)C(=O)NC3=O)c2)CC1	inactive
Cc1cc(C)nc(NC(=S)N2CCN(c3cncs3)CC2)c1	inconclusive: 3.16 µM [inhibitor, partial curve, poor fit]
CC1OC(OC2CCC3(C)C(CCC4(C)C3CC=C3C5CC(C)(C)CCC5(C(=O)OC5OC(CO)C(O)C(O)C5O)CCC34C(=O)O)C2(C)C)C(O)C(O)C1O (centres undefined)	inactive
Cc1ccc(Cn2ncc3c4sc(C)cc4n(C)c3c2=O)cc1	inactive
Cc1ccc(S(=O)(=O)Nc2ccc(C(=O)Nc3nc(-c4ccccc4)cs3)c(Cl)c2)cc1	inactive
Clc1cccc(-c2nnnn2Cc2cccnc2)c1Cl	inactive
COc1c(C(CC(C)C)OC(C)=O)ccc(Oc2c(O)cc(C)cc2/C=C/C(C)=O)c1C(=O)O (centres undefined)	inconclusive: 8.91 µM [inhibitor, partial curve, poor fit]
CC(C)[N+]1(C)C2CCC1CC(OC(=O)C(CO)c1ccccc1)C2 (centres undefined)	inactive
COc1c(C)c(OCC=C(C)C)cc2c1CNC2=O	inactive
CC(=O)O[C@H]1CC[C@@]2(C)C(CC[C@@H](C)[C@]23Cc2c(O)cc4c(c2O3)CN([C@@H](CCC(=O)O)C(=O)O)C4=O)C1(C)C (some centres undefined)	inactive
COc1c2c(c(C)c3c1C(=O)OC3)OC1(C)CC(O)C34OC(OC)(CCC3(C)C1C2)OC4(C)CO (centres undefined)	inactive
CC1OC2OC(=O)C3(C)CC4C5(CO5)C5=CC(=O)OC(C)(C)C5=CC(=O)C4(C)C(C1=O)C23 (centres undefined)	inconclusive: 10 µM [inhibitor, partial curve, poor fit]
CC1(CO)CC[C@]2(C(=O)O[C@@H]3O[C@H](CO)[C@@H](O)[C@H](O)[C@H]3O)CC[C@]3(C)C(=CCC4[C@@]5(C)C[C@H](O)[C@H](O[C@@H]6OC[C@@H](O)[C@H](O)[C@H]6O)[C@@](C)(CO)C5CC[C@]43C)C2C1 (some centres undefined)	inactive
CC1CC(O)/C=C/C(O)C(O)CC(=O)Cc2c(Cl)c(O)cc(O)c2C(=O)O1 (centres undefined)	inconclusive: 11.2 µM [inhibitor, single point]
O=C(OCC1=CC(Cl)C(O)C(OC(=O)c2ccccc2)C1O)c1ccccc1 (centres undefined)	inactive
COc1ccc2c(=O)n3nc(Nc4ccc5c(c4)CCC5)sc3nc2c1	inconclusive: 14.1 µM [inhibitor, partial curve, poor fit]
Cc1cc(/C=C/C#N)cc(C)c1Nc1nc(Nc2ccc3n[nH]nc3c2)c2[nH]cnc2n1	inconclusive: 14.1 µM [inhibitor, partial curve]
